The supplement of paper PMC11417369
This is one part of the list.

Test system: PF3D7_0420300 AP2 domain 1 (GST-tagged)
Test: gcPBM binding intensity (ln(normalized median fluorescence intensity)); higher = stronger DNA binding
How it was run: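 After 1 h on an Agilent 4 × 180k array of primer-extended double-stranded 36-bp intergenic genomic probes and negative controls, bound GST-tagged P. falciparum DNA-binding domains were detected with Alexa488 anti-GST antibody and scanned at 488 nm. The domains had been expressed in E. coli, and binding took place in 1× PBS with 1% milk, 0.2 mg/ml BSA, 0.5% salmon testes DNA and 0.03% Triton X-100. Binding intensity is the highest Masliner-normalised natural-log median intensity across replicate spots of either probe orientation.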

Sequence | gcPBM binding intensity (ln)
AAGAAAAATAATTAGGGTGAAAATATATAGAGTAAA [TGCATGCA_negctrl_site590] | 9.39
ACACATATATATATATATATATATATATATATATAT [CACACA_negctrl_site1766] | 9
CAATTCTTAAGTTCTTGTACGAAAAACGACAATTTA [XGTACX_site3890] | 8.81
TATTATATAAAATATTTTATTATATCATCTTCTCTA [XGTACX_negctrl_site319] | 9.04
GGTAATAATATGCATAGTACATAATATATATATATA [XGTACX_site6793] | 9.28
ATAATATAAATAATTATACACACTTAATATATATAT [CACACA_site2782] | 9.36
GTATGTATGTATGTATGTACGTATTTATTTATTTAA [XGTACX_site726] | 9.24
CACAAAAATTTATACACACACATATAAAATATAGAT [CACACA_site6218] | 9.93
TTCACTATACAAAGGTGTACTTAATTTTGTCCCATT [XGTACX_site7483] | 9.29
AGTTATTACACACAAACATGCATTAATATCAAAAAA [TGCATGCA_site63] | 9.64
AAATATATATATAGTACATGCAGTAGATAATTTAAT [TGCATGCA_site299] | 9.51
ATTAGGTATTTTTTTTGTACATATTATATAATGTGA [XGTACX_site3815] | 9.33
TAATTTTATATAAATTGTACAAAAATATTTTATTAA [XGTACX_site7166] | 8.76
TGCAGGTGTTATTCACGTACGCATTTGATTAAAAAA [XGTACX_site7743] | 8.96
TAAAATATACAAATTTGTACATATATATGTATGTAT [XGTACX_site1127] | 9.33
ATAAAAACATAAAAATGTACATATATATATATATAT [XGTACX_site7165] | 9.23
ATTAGAAAATAAAATAATAAATAAAATAAAAAAAAA [CACACA_negctrl_site409] | 9.37
TTTTATTTTATTCAATTTTTACTTTTATAAAAATAT [GTGCAC_negctrl_site578] | 9.04
AATATTAGGTTATGTAGTACATAACAATAATTATAC [XGTACX_site5733] | 9.29
GTGTTGGGAAAAGGCATGCACTTTTTTTTTTTTTTT | 9.23
ATGTATATGCAAACATGTACATATATAAACATATAT [XGTACX_site4159] | 9.16
AAGGAATATGTATATACACACAGGTACATATTTATA [CACACA_site6344] | 9.53

Sequence | gcPBM binding intensity (ln)
ATAAAGAATATAAATACACACTTAAATATATATTAT [CACACA_site6071] | 9.53
TTTATATTTAAAAGGATGCACTACAAATTCTAAATA | 9.08
TATCCTTATATTTGCACACACACACCCTAAAATGAA [CACACA_site1029] | 10.1
AAGACAAATATGAAGAGTACATTTATATAAAAATTA [XGTACX_site5142] | 9.24
CTACAATATCTTTAAAGTACTTTTATATAACTACCA [XGTACX_site6119] | 9.14
AAAACAAACAGACACACACACATATTTATATTTATA [CACACA_site7681] | 10.1
TTATATTAAACAAACACACACATATAAATATAAATA [CACACA_site7174] | 9.93
ATATATTTTTATGTAGTGCATTTAAATAATAAATGC | 9.05
ATTTTTTCCAATTCTTTACCTTAGAAAGGTGTTCAA [CACACA_negctrl_site1401] | 9.05
ACCTCATAATATTTAACACACAAAATTATATGTATG [CACACA_site1704] | 9.57
ATATATATATAATGAAGTACGAAAAAATAAGAAATG [XGTACX_site4001] | 9.65
ATTCTAAATAAATGTACACACAAAAATAAATGTATA [CACACA_site1732] | 9.54
AATGATCAGATATACACACACACAAAAAAAAAAAAA [CACACA_site7806] | 9.99
GTAAATAAATAAATAAATAAATATATATATATATAT [CACACA_negctrl_site1737] | 9.11
AATAAAAAAAAATTCACACAAAGTTAGATTAACTAT [CACACA_site4224] | 9.26
TATGAATATTGCATGTGTACCTATTATCCTTTTAAA [XGTACX_site4311] | 9.39
ATAATTATTTTCCCGTGTACTTATTTTTTTCAAGTA [XGTACX_site8843] | 9.35
ATATAAAATAAAAAAAAAAAAAAAAAAAAAAAAAAA [CACACA_negctrl_site1234] | 8.39
TTTTTGTATCCTTTTAATATTAAATAAAAGGAATGT [CACACA_negctrl_site1468] | 8.99
TTAATGTTTGAAAGAGTGCACATAACAAAAAAAAAA [GTGCAC_site9623] | 9.31
TAATTAAAAAATGAATAAATGAATAAATAAATAAAT [CACACA_negctrl_site838] | 9.26
AAAAAAAAAAAGATAAATACAAGTTACACAAAAAAA [GTGCAC_negctrl_site664] | 9.34

Sequence | gcPBM binding intensity (ln)
ACGTTGCGACGCAAGGTGCTTATTTTCTTATAAATA | 9.04
AACAAATTTTTTATTAAACACACAAACATATATATA [CACACA_site8588] | 9.47
TGTGAATATATCTTTAAAAAGGATAAATAATAATTT [CACACA_negctrl_site507] | 9.04
GCTCATTGAAATTATACACACCAAATATATAAATAT [CACACA_site5385] | 9.4
AATAAGAATTAAAAATGTACAAAAAAATGTATTTAT [XGTACX_site8005] | 9.35
AAGTATAAAATATTTTGTACTTAAAAAATTATATGG [XGTACX_site2180] | 9.08
AGTGGGATTTTTAATTGTACATAAATAATATCATAA [XGTACX_site4163] | 9.02
CATGTTATATATATATGTACTAAAAATATAATATAA [XGTACX_site1978] | 9.18
TTTTTTTTTTTTGGTAGTACATAAATATTTTATGGA [XGTACX_site6851] | 8.93
CAATAAATAATAAATACATGCAAGTATGAAGATATA [TGCATGCA_site859] | 9.46
TGTTTGATGGTACACGTACACACCTTGCAAATATTT [CACACA_site888] | 9.57
AATATAAAATAGAAAAATGAAAAAAAAAAAAAGGGT [CACACA_negctrl_site1263] | 9.92
TATATATATTTTAACACACACATATATATATTTATA [CACACA_site2765] | 9.66
AGCAGTTTTTTTTTTTTTTTTTTTTTTATTAAAAGC [XGTACX_negctrl_site392] | 8.95
ATAATAAATCATCATATTACATTTATCTTTGTTGGA [CACACA_negctrl_site849] | 9.18
TACTTATTTTTATAGCATTTCACGGAGGTAGTAATA [CACACA_negctrl_site468] | 9.19
AACTGTAATTTTATACGTACATAAATAATATTATAT [XGTACX_site4277] | 9.21
TTTGCAACATATAAAAGTACAAATAATATATTTATT [XGTACX_site890] | 9.16
TTTATTATATGCACACGTACATATAATATATATATA [XGTACX_site4108] | 9.19
TTATGGTATAAAAAAATACACACTTATATATATTCT [CACACA_site488] | 9.35
TTTTATTTTTTCTATACATGCATGTCCAATTTTCTT [TGCATGCA_site304] | 9.6
GTTTTTTTATAAAATTTTTATATAATTCTTTTATAA [CACACA_negctrl_site1605] | 9.19

Sequence | gcPBM binding intensity (ln)
AAAAAAAAAAAAAACACACATACACGCCCACCCATA [CACACA_site3391] | 10.2
TAATAATAAAAAATACGTACATATTATTTATATATG [XGTACX_site853] | 9.08
CATTTTATTCTATATGCATGTTAAAAAATGTGTTGA [TGCATGCA_site128] | 9.12
ATATATAAGAACATATATATTGGAAATATTGAATTT [XGTACX_negctrl_site121] | 9.19
AATAAAAATATTATATGTACATATTTTAATATATAT [XGTACX_site1259] | 9.21
ATAATACCCATTATCTTACAACAAAATGCAAACAAA [CACACA_negctrl_site1037] | 9.32
AACATAATATCATATACACACAAAAATATTGAAATA [CACACA_site2160] | 9.78
AAAAAAAAAGAAAAACGTACGTTTATTTAATATATA [XGTACX_site4018] | 9.06
TTATATAACTTTTCTAGTACTTGTATAAATTCCTAC [XGTACX_site3685] | 9.16
AAAATTAGATTATGCACACACACTTAAAAATAATAA [CACACA_site1975] | 9.77
AAGAACATATTATATACATGCATAATTCGATAGATT [TGCATGCA_site882] | 9.37
TTAAAATATGTAGCTACACACACATAAACAAAATAA [CACACA_site8244] | 9.63
TAATTATAATAATAACGTACATATATAAAATGGTGA [XGTACX_site8434] | 9.47
TGTAGTCTGGAGAAAAGTACACAGTATCTGGTAGCT [XGTACX_site2012] | 9.16
TATATATATATATAGGTGCTATAATTTATATACACA | 9.11
TTTTTTTTTCTGAATTTATAATTCAAAAATATATAT [CACACA_negctrl_site300] | 8.81
AGGAAGGAAATAAATCAACACACATATATTATATAT [CACACA_site8678] | 9.69
ATATTTATTTTAATTTTTCTATATAAACTATTATGA [CACACA_negctrl_site739] | 9.02
TTTCTAAGAAAAAAAAAAAAAAAAAAAAAGATACAA [GTGCAC_negctrl_site525] | 9.04
TATATATATTATATATGTACATATTGTATATTTTTG [XGTACX_site4564] | 9.22
ATTATAAATATCAGTGCACACATTTCTACGCAAAGT [CACACA_site4420] | 9.47
TATGTAAAATGTGTTTGTACTTATTTATTATATAAA [XGTACX_site2816] | 9.24
